Data on 19 variants can be found in the RNAGym collection of RNA variant scans (doi:10.1073/pnas.2313332121).

Variants at the background level are over-represented here.

First the molecules themselves.
B1: TPR 5TU (parent)
chain: GGAUCUUCUCGAUCUAACAAAAAAGACAAAUCUGCCACAAAGCUUGAGAGCAUCUUCGGAUGCAGAGGCGGCAGCCUUCGGUGGCGCGAUAGCGCCAACGUUCUCAACUAUGACACGCAAAACGCGUGCUCCGUUGAAUGGAGUUUAUCAUG

The series covers variants of B1. The experiment in a line: polymerase ribozyme fitness, log enrichment relative to wild type (log ratio); higher = more active; in vitro selection for triplet polymerase activity. An outline of the steps: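 To select mutant libraries of each subunit of a heterodimeric triplet polymerase ribozyme, built by PCR and transcribed, each was annealed with a biotinylated primer, partner subunit and triplets, then incubated frozen at −7 °C. Extended constructs were gel-excised, captured on streptavidin beads and amplified by RT-PCR, in one round carried out in triplicate. Illumina sequencing of input and output libraries kept genotypes with ≥10 input reads and ≥1 read per output. Fitness is the base-2 logarithm of genotype enrichment relative to wild-type enrichment, from inverse-variance-weighted replicate averages.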
Turning to GGAUCUUCUCGAUCUAACAAAAAAGACAAAUCUGCCACAACGCUUGAGAGCAUCUUCGGAUGCAGAGGCGGCAGCCUUCGGUGGCGCGAUAGCGCCAACGUUCUCAACUAUGACACGCAAAACGCGUGCUCCGGUGAAUGGAGUUUAUCAUG, the “polymerase ribozyme fitness (log ratio)” value is -2.46. With GGAUCUUCUCGAUCUAACAAAAAAGACAAAUCUGCCACAAGGCUUGAGAGCAUCUUCGGAUGCAGAUGCGGCAGCCUUCGGUGGCGCGAUAGCGCCAAUGUUCUCAACUAUGACACGCAAAACGCGUGCUCCGUUGAAUGGAGUUUAUCAUG, the “polymerase ribozyme fitness (log ratio)” value is not above -4.2. In the case of GGAUCUUCUCGAUCUAACAAAAAAGACAAAUCUGCCACAAGGCUUGAGACCAUCUUCGGAUGCAGAGGCGGCAGCCUUCGGUGGCGAGAUAGCGCCAACGUUCUCACCUAUGAUACGCUAAACGCGUGCUCCGUUGAAUGGAUUUUAUCAUG, the “polymerase ribozyme fitness (log ratio)” value was not above -4.2.

Turning to GGAUCUUCUCGAUCUAACAAAAAAGACAAAUCUGCCACAAGGCUUGAGAGCAUUUUCGGAUGCAGAGGCGGCAGCCUACGAUGGCGCGAUAGCGCCAACAUUCUCAACUAUGACACGCAAAACGCGUGCUCCGUUGAAUGUAGUUUAACAUG, the “polymerase ribozyme fitness (log ratio)” value was not above -4.2.

As for GGAUCUUCUCGAUCUAACAAAAAAGACAAAUCUGCCACAAGGCUUGAGAGCAUCUUCGGAUGCAGAGGCGGCAGCCUUCGGUGGCGCGAUAGAGCAAACGUUAUCAACUAUGACACGCAAAACGCGUGCUCCGUUGAAUGGAGUAUAUCAUG, the “polymerase ribozyme fitness (log ratio)” value was not above -4.2. Regarding GGAUCUUCUCGAUCUAACAAAAAAGACAAAUCUGCCACAAGGCUUGAGACCAUCUUCGGAUGCAGAGGCGGCAGCCUUCGGUGGUGAGAUAGCGCCAACGUUUUGAACUAUGACUCGCAAAACGCGUGCUCCGUUGAAUGGAGUUUAUCAUG, the “polymerase ribozyme fitness (log ratio)” value was not above -4.2. GGAUCUUCUCGAUCUAACAAAAAAGACAAAUCUGCCACAAGGCUUGAGAGCAUCUUGGGAUGCAGAGGCGGCAGCCUUCGGUGGCGCCAGAGCGCCAACGUUCUCAACUAUGACACGCAAAACGCGUGCUCCGUUGAAUCGACUUUAUCAUG: the “polymerase ribozyme fitness (log ratio)” value was not above -4.2. As to GGAUCUUCUCGAUCUAACAAAAAAGACAAAUCUGCCACAAGGCUUGAGAGAAUCUUCGGAUGCAGAGGCGGCAGCCUUCGGUAGCGCGAUAGCGCCAACGUUCUCAACUAUGACACGCAAAACGCGUGCUCCGUUGAAUGGAGUUUAUCAUG, the “polymerase ribozyme fitness (log ratio)” value was -2.57.

Take GGAUCUUCUCGAUCUAACAAAAAAGACAAAUCUGCCACAAGGCUUGAGAGCAUCUUCGGAUGUAGAGGCGGCAGCCUUCGGUGGCGCGAUAGCGCCAACGUUCUCAACUAUGACACGCAAAACGCGUGCUCCGUUGAAUGGAGUUUAUCAUG: the “polymerase ribozyme fitness (log ratio)” value is 0.774. As for GGAUCUUCUCGAUCUAACAAAAAAGACAAAUCUGCCACAAGACUUGAGAGCAUCUUCGGAUGCAGAGGCGGCAGCCUUCGGUGGCGCGAUACCGCCAACGUUCUCAACUACGUCACGCAAAACGGGUGCUCCGUUGAAUGGAGUUUAUCAUG, the figure is not above -4.2; as for GGAUCUUCUCGAUCUAACAAAAAAGACAAAUCUGCCACAAGGCUUGAGACCAUCUUCGGAUGCAGAGGCGGCAGCCGUCGGUGGCGCGAUAGCACCAACGUUCCCAACUACGACACGCAUAACGCGUGCUCCGUUGAAUGGAGUUUAACAUG, not above -4.2; as for GGAUCUUCUCGAUCUAACAAAAAAGACAAAUCUGCCACAAGGCUUGAGAGCAUCUUCGGAUGCAGAGGAGGCAGCCUUCGGUGACGCGAUAGCCCCAACGUUCUCAACUAUGACACGCAAAACGGGUACUCCGUUGAAUGGAGUUUAUCAUG, not above -4.2.

In the case of GGAUCUUCUCGAUCUAACAAAAAAGACAAAUCUGCCACAAGUCUUGAGAGCAUCUUCGGAUGCAGAGGCGGCAGCCUUCGGUGGCGCGAUCGCGCCAACGUUCUCAACUAUGAUACGCAAAACGCGUGCUCCGUAGAAUGGAGUUUAUCAUG, the “polymerase ribozyme fitness (log ratio)” value is not above -4.2. The result for GGAUCUUCUCGAUCUAACAAAAAAGACAAAUCUGCCACAAGGCUUGUGAGUCUCUUCGGAUGCAGAGGCGGCAGCCUUCGGUGGCGCAAUAGCGCCAACGUUCUCAACUAUGACACGCAAAACGCGUGCUCCGUUUAAUGGAGUUUAUCAUG reads not above -4.2; that for GGAUCUUCUCGAUCUAACAAAAAAGACAAAUCUGCCACAAGGCUUGAGAGCAUCUUCGGAUGCAGAGGCGGCAGCCUUCGGUGGCGCGAUUGCGCCAACGUUCUCAACUAUGACACGCAAAACGCGUGCUCCGUUGAAUGGAGUUUAUCAUG, not above -4.2; that for GGAUCUUCUCGAUCUAACAAAAAAGACAAAUCUGCCACAAGGCUUGAGAGCAUCUUCGGAUGCAGAGGCGGCAUCCUUCGGUGGCGCGAUAGCGCCAACGUUCUCAACUAUGACACGCAAAACGCGUGCUCCCUUGCAUGGAGUUUAUCAUG, not above -4.2. As for GGAUCUUCUCGAUCUAACAAAAAAGACAAAUCUGCCACAAGGCUUGAGAGCAUCUUCGGAUGCAGAGGCGGCAGCCUUCGGUGGGGCGAUAGGGCCAACGUUUUCAACUAUUACACGCAAAACGCGUUCUCCGUUGAAUGGACUUUAUCAUG, the figure is not above -4.2; as for GGAUCUUCUCGAUCUAACAAAAAAGACAAAUCUGCCACAAGGCUUGUGAGCAUCUUCGGAUGCAGAGGCGGCAGCCUUCGGUGGCGCCAUAGCGCCAACGUUCUCAACUAUGACACGCAAAACGCGUGCUCCUUUGAAUGGAGUUUAUAAUG, not above -4.2; as for GGAUCUUCUCGAUCUAACAAAAAAGACAAAUCUGCCACAAGGCUUGCGAGCAUCUUCGGAUGCAGAGGCGGCAGCUUUAGGUGGCGCGAUAGCGCUAACGUUCUCAACUAUGACACGCAAAACGCGUGCUCCGUUGAACGGAGUUUAUCAUG, not above -4.2.
